{"source": "PubChem BioAssay AID1460", "about": "(National Center for Advancing Translational Sciences (NCATS), 2008)", "note": "The campaign covered roughly 270,000 compounds. About 5,800 (2.1%) were called active. This list was built around the results that the source calls inconclusive (neither active nor inactive); the mix of calls is not that of the screen. The call rests on the fitted dose curve; in most records, active means well fitted inhibition curve with a large enough effect; inconclusive means small, poorly fitted or top-dose-only effect; inactive means flat fitted curve, though single readings scatter. Potencies of inconclusive entries are doubtful fits and often do not repeat. On the % scale 0 is the no-effect control and ±100 the full control effect; potency means the concentration at half of the fitted maximal effect; tags describe the fitted curve by direction and shape.", "data": [{"molecular_target": "Microtubule-associated protein tau (Homo sapiens) (UniProt P10636)", "sequence (P10636 whole entry, looked up, the tested form may be a part)": "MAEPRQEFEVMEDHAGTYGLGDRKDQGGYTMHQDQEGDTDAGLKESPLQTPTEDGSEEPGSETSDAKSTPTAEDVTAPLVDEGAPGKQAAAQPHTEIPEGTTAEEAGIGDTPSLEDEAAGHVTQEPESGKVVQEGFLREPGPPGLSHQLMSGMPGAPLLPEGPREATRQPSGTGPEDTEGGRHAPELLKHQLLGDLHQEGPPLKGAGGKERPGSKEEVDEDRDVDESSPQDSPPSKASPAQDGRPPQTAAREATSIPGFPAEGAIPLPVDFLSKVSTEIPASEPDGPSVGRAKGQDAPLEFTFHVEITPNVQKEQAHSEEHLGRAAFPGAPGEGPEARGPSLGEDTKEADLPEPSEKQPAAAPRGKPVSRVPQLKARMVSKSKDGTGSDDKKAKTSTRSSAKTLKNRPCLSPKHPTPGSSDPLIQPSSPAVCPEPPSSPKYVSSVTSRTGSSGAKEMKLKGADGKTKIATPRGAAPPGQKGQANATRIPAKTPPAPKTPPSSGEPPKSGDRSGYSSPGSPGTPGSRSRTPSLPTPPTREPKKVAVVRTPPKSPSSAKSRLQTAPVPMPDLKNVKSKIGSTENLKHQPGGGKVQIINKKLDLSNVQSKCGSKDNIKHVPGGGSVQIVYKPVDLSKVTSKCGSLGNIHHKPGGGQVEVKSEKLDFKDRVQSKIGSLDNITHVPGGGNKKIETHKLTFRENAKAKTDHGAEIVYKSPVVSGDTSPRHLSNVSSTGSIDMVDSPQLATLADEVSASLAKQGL", "assay": "qHTS for Inhibitors of Tau Fibril Formation, Thioflavin T Binding; further: nearly all actives have a fitted effect of over 55% in size", "conditions": "recombinant tau K18 P301L (four-repeat tau fragment), heparin-induced fibrillization, ThT fluorescence; series mostly up to 57.4 µM; activity, negative = inhibition: at the top concentration", "procedure,_shortened": "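Recombinant human tau K18 fragment […] carrying P301L, 15 uM unlabeled plus 0.24 uM Alexa 594-labeled, was fibrillized with 20 uM heparin in 100 mM sodium acetate pH 7 for 6 hr at 37 C; 30 uM ThT fluorescence read after 1 hr.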", "values": [{"compound": "CCc1ccccc1NC(=O)N1CCc2ccccc21", "Potency": "inconclusive: 14.1 µM [inhibitor, partial curve]"}, {"compound": "O=C(O)Cc1sc(Nc2ccc(F)cc2)nc1-c1cccs1", "Potency": "inconclusive: 12.6 µM [inhibitor, partial curve]"}, {"compound": "Nc1c(C(=O)Nc2ccc(Cl)c(Cl)c2)sc2nc(-c3cccnc3)ccc12", "Potency": "inconclusive: 3.55 µM [inhibitor, partial curve]"}, {"compound": "CCc1nnc(NC(=O)C2Cc3ccccc3CN2S(=O)(=O)c2c(C)c(C)cc(C)c2C)s1", "note": "(stereo unspecified)", "Potency": "inconclusive: 12.6 µM [inhibitor, partial curve]"}, {"compound": "Cc1cccc(C(=O)NNC(=O)c2cccc([N+](=O)[O-])c2)c1", "activity, negative = inhibition": "inactive: -1.12%"}, {"compound": "CCOC(=O)c1c(NC(=O)N/N=C/c2ccc(O)c(OC)c2)sc(C(C)=O)c1C", "Potency": "inconclusive: 10 µM [inhibitor, partial curve]"}, {"compound": "CCn1c(=O)cc(C(=O)OC)sc1=Nc1ccc(F)c(F)c1", "Potency": "inconclusive: 39.8 µM [inhibitor, single point]"}, {"compound": "Cc1cc(OCCn2c(CCNC(=O)C3CCCCC3)nc3ccccc32)ccc1Cl", "activity, negative = inhibition": "inactive: -9.99%"}, {"compound": "O=C(N=Nc1c(O)[nH]c2ccccc12)c1cc(-c2ccc(F)cc2)n[nH]1", "Potency": "active: 2.24 µM"}, {"compound": "Cc1cc(/C=N\\NC(=O)CC(=O)NC2CCCCC2)c(C)n1-c1ccc(Cl)cc1", "Potency": "inconclusive: 31.6 µM [inhibitor, partial curve]"}, {"compound": "CC(C)CCNC(=O)C(NS(=O)(=O)c1ccc2c(c1)c(=O)n(C)c(=O)n2C)c1ccccc1", "note": "(stereo unspecified)", "activity, negative = inhibition": "inactive: -4.27%"}, {"compound": "O=C(CSc1cccc2cccnc12)OCC(=O)c1ccc(Br)cc1", "Potency": "inconclusive: 3.98 µM [inhibitor, full curve]"}, {"compound": "COc1cc(O)ccc1/C=N/NC(=O)c1ccc([N+](=O)[O-])cc1", "Potency": "inconclusive: 2.51 µM [inhibitor, full curve]"}, {"compound": "Cn1c(C(=O)O)c(C=O)c2ccccc21", "activity, negative = inhibition": "inactive: 4.83%"}, {"compound": "CCS(=O)(=O)c1c([N+](=O)[O-])ncn1C", "Potency": "inconclusive: 12.6 µM [inhibitor, partial curve]"}, {"compound": "Cc1cccc(CN2CCN(CC(=O)NCCCN3CCCC3=O)C2=O)c1", "activity, negative = inhibition": "inactive: 2.67%"}, {"compound": "CCc1ccc(OCC(=O)Nc2cc(-c3ccc(C)cc3)no2)cc1", "Potency": "inconclusive: 0.112 µM [inhibitor, full curve, poor fit]"}, {"compound": "Cc1ccccc1OCc1nc2c3cnn(-c4ccccc4F)c3ncn2n1", "Potency": "inconclusive: 0.355 µM [inhibitor, full curve]"}, {"compound": "Cc1nc(N2CCCCC2)c2sc(=S)n(C)c2n1", "activity, negative = inhibition": "inactive: -10.7%"}, {"compound": "COc1ccc(NC(=O)c2sc3nc4c(cc3c2N)CCCCCC4)cc1", "Potency": "inconclusive: 3.16 µM [inhibitor, full curve]"}, {"compound": "Cc1ccc(Cl)cc1Nc1nc(-c2sc(NC(=O)c3ccccc3)nc2C)cs1", "Potency": "inconclusive: 2.82 µM [inhibitor, full curve]"}, {"compound": "CN(C)C(=S)c1ccc(N(C)C)cc1", "activity, negative = inhibition": "inactive: 2.3%"}, {"compound": "COc1ccc2c(c1)C(=O)[C@@H](OC(=O)NCc1ccco1)[C@H](c1ccc(OC)c(Br)c1)O2", "activity, negative = inhibition": "inactive: -12.3%"}, {"compound": "NC(=O)CC[C@@H]1NC(=O)[C@H](Cc2ccccc2)NC(=O)[C@H](Cc2ccc(O)cc2)NC(=O)[C@@H](N)CSSC[C@@H](C(=O)N2CCC[C@H]2C(=O)N[C@@H](CCCN=C(N)N)C(=O)NCC(N)=O)NC(=O)[C@H](CC(N)=O)NC1=O", "activity, negative = inhibition": "inactive: -6.18%"}, {"compound": "Cc1cc(=O)n2[nH]c(-c3ccc(F)cc3)cc2n1", "Potency": "inconclusive: 39.8 µM [inhibitor, single point]"}, {"compound": "CCOC(=O)c1c(NC(=O)c2nn(CC)cc2Br)sc(C)c1C", "activity, negative = inhibition": "inactive: -13.3%"}, {"compound": "COc1ccc2nc(NC(=O)CCc3nc(-c4ccccc4F)no3)sc2c1", "Potency": "inconclusive: 4.47 µM [inhibitor, partial curve]"}, {"compound": "CC1=NN(c2nc(-c3ccc(C)cc3)cs2)C(=O)C1N=Nc1ccccc1O", "note": "(stereo unspecified)", "Potency": "active: 2 µM"}, {"compound": "COc1cc(/C=N/NC(=O)c2cc3ccccc3cc2O)ccc1OCCN1CCCCC1", "Potency": "inconclusive: 12.6 µM [inhibitor, partial curve]"}, {"compound": "Cc1ccc(C2c3c(oc4ccccc4c3=O)C(=O)N2CCCN2CCOCC2)o1", "note": "(stereo unspecified)", "Potency": "inconclusive: 8.91 µM [inhibitor, partial curve]"}, {"compound": "Cc1nn2c(N3CCCC3)cc(C(C)C)nc2c1-c1ccccc1", "Potency": "inconclusive: 17.8 µM [inhibitor, partial curve]"}, {"compound": "CCCNC(=O)c1ccccc1NC(=O)c1nsc2ccccc12", "activity, negative = inhibition": "inactive: -2.12%"}, {"compound": "O=C(COc1ccccc1)NCc1ccccc1", "activity, negative = inhibition": "inactive: -5.51%"}, {"compound": "O=C(CSc1nnc(NC(=O)C2CCC2)s1)Nc1ccc(N2CCOCC2)cc1", "Potency": "active: 6.31 µM"}, {"compound": "COc1ccccc1C1=NNC(=NCc2ccccc2)SC1", "activity, negative = inhibition": "inactive: -17.2%"}, {"compound": "CC(C)(C)C(=O)NC(=S)NNC(=O)c1ccc(-c2ccccc2)cc1", "Potency": "inconclusive: 25.1 µM [inhibitor, single point]"}, {"compound": "O=c1[nH]c2ccc(NC(=S)Nc3ccc(F)cc3)cc2[nH]1", "Potency": "inconclusive: 35.5 µM [inhibitor, single point]"}, {"compound": "CN1c2cccc3cccc(c23)N(C)C1(C)C", "Potency": "inconclusive: 15.8 µM [inhibitor, partial curve]"}, {"compound": "COc1ccc(-c2cc(C(=O)N3CCN(c4ccccc4)CC3)c3ccccc3n2)cc1OC", "activity, negative = inhibition": "inactive: -17.6%"}, {"compound": "CCOc1ccc(CNC(=O)C2CCN(C(=O)N3CC(CC)Oc4ccccc43)CC2)cc1", "note": "(stereo unspecified)", "activity, negative = inhibition": "inactive: -11.2%"}, {"compound": "Cc1cc(=O)oc2cc(OCC(=O)N/N=C/c3ccccc3[N+](=O)[O-])ccc12", "Potency": "inconclusive: 11.2 µM [inhibitor, partial curve]"}, {"compound": "COc1ccc(C2=NN(C(C#N)c3ccc(OC)cc3)C(c3ccccc3)C2)cc1", "note": "(stereo unspecified)", "Potency": "inconclusive: 14.1 µM [inhibitor, partial curve]"}, {"compound": "CSc1cccc(NC(=O)C2CCCN(C(=O)c3cnn(-c4ccc(F)cc4)c3-n3cccc3)C2)c1", "note": "(stereo unspecified)", "activity, negative = inhibition": "inactive: -11.3%"}, {"compound": "Cc1ccc(S(=O)(=O)N2CCC(=O)N(CCOCc3cccc(C(F)(F)F)c3)CC2)cc1", "activity, negative = inhibition": "inactive: -9.3%"}, {"compound": "CC1CCCCC1NC(=O)C1CCN(C(=O)NC2CCCCC2)CC1", "note": "(stereo unspecified)", "activity, negative = inhibition": "inactive: 2.53%"}, {"compound": "Cc1ccc(/C=N/Nc2nc(Cl)c(Cl)cc2Cl)s1", "Potency": "inconclusive: 3.16 µM [inhibitor, full curve]"}]}]}
